The list shows a part of the results.
What was measured:
Assay in all cases: glycan array binding signal (z-score within array); higher = stronger binding
Conditions in all cases: glycan notation: IUPAC condensed, linker removed
[1] = target: Neu5Ac(a2-3)Gal(b1-4)[Fuc(a1-3)]GlcNAc
How it was run: (§1)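 The binding signal is a Z-score computed within each array and averaged over linkers. Arrays of the same protein sequence at different concentrations or buffers were also averaged together. Data originate from 3228 arrays in the Consortium for Functional Glycomics database, kept only where the protein sequence was available.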

[2] = target: Neu5Ac(a2-3)Gal(b1-4)[Fuc(a1-3)]GlcNAc(b1-3)Gal
How it was run: as §1

[3] = target: Neu5Ac(a2-3)Gal(b1-4)[Fuc(a1-3)]GlcNAc(b1-3)Gal(b1-4)GlcNAc
How it was run: as §1

[4] = target: Neu5Ac(a2-3)Gal(b1-4)[Fuc(a1-3)]GlcNAc(b1-3)Gal(b1-4)[Fuc(a1-3)]GlcNAc(b1-3)Gal(b1-4)[Fuc(a1-3)]GlcNAc
How it was run: as §1

[5] = target: Neu5Ac(a2-3)Gal(b1-4)[Fuc(a1-3)]GlcNAc(b1-6)[Gal(b1-3)]GalNAc
How it was run: as §1

[6] = target: Neu5Ac(a2-3)Gal(b1-4)[Fuc(a1-3)]GlcNAc6S
How it was run: as §1

[7] = target: Neu5Ac(a2-3)Gal6S(b1-4)GlcNAc
How it was run: as §1

[8] = target: Neu5Ac(a2-3)Gal6S(b1-4)[Fuc(a1-3)]GlcNAc
How it was run: as §1

Neu5Ac(a2-3)GalNAc = target: Neu5Ac(a2-3)GalNAc
How it was run: as §1

[9] = target: Neu5Ac(a2-3)GalNAc(b1-4)GlcNAc
How it was run: as §1

[10] = target: Neu5Ac(a2-3)[GalNAc(b1-4)]Gal(b1-4)Glc
How it was run: as §1

[11] = target: Neu5Ac(a2-3)[GalNAc(b1-4)]Gal(b1-4)GlcNAc
How it was run: as §1

[12] = target: Neu5Ac(a2-3)[Neu5Ac(a2-6)]GalNAc
How it was run: as §1

Neu5Ac(a2-6)Gal = target: Neu5Ac(a2-6)Gal
How it was run: as §1

Neu5Ac(a2-6)Gal(b1-4)Glc = target: Neu5Ac(a2-6)Gal(b1-4)Glc
How it was run: as §1

[13] = target: Neu5Ac(a2-6)Gal(b1-4)GlcNAc
How it was run: as §1

[14] = target: Neu5Ac(a2-6)Gal(b1-4)GlcNAc(b1-2)Man(a1-3)[Gal(b1-4)GlcNAc(b1-2)Man(a1-6)]Man(b1-4)GlcNAc(b1-4)GlcNAc
How it was run: as §1

[15] = target: Neu5Ac(a2-6)Gal(b1-4)GlcNAc(b1-2)Man(a1-3)[GlcNAc(b1-2)Man(a1-6)]Man(b1-4)GlcNAc(b1-4)GlcNAc
How it was run: as §1

[16] = target: Neu5Ac(a2-6)Gal(b1-4)GlcNAc(b1-2)Man(a1-3)[GlcNAc(b1-2)Man(b1-4)GlcNAc(b1-2)Man(a1-6)]Man(b1-4)GlcNAc(b1-4)GlcNAc
How it was run: as §1

[17] = target: Neu5Ac(a2-6)Gal(b1-4)GlcNAc(b1-2)Man(a1-3)[Neu5Ac(a2-6)Gal(b1-4)GlcNAc(b1-2)Man(a1-6)]Man(b1-4)GlcNAc(b1-4)GlcNAc
How it was run: as §1

[18] = target: Neu5Ac(a2-6)Gal(b1-4)GlcNAc(b1-2)Man(a1-6)[Gal(b1-4)GlcNAc(b1-2)Man(a1-3)]Man(b1-4)GlcNAc(b1-4)GlcNAc
How it was run: as §1

[19] = target: Neu5Ac(a2-6)Gal(b1-4)GlcNAc(b1-2)Man(a1-6)[GlcNAc(b1-2)Man(a1-3)]Man(b1-4)GlcNAc(b1-4)GlcNAc
How it was run: as §1

[20] = target: Neu5Ac(a2-6)Gal(b1-4)GlcNAc(b1-3)Gal(b1-4)GlcNAc
How it was run: as §1

[21] = target: Neu5Ac(a2-6)Gal(b1-4)GlcNAc(b1-3)Gal(b1-4)[Fuc(a1-3)]GlcNAc(b1-3)Gal(b1-4)[Fuc(a1-3)]GlcNAc
How it was run: as §1

[22] = target: Neu5Ac(a2-6)Gal(b1-4)GlcNAc6S
How it was run: as §1

Neu5Ac(a2-6)GalNAc = target: Neu5Ac(a2-6)GalNAc
How it was run: as §1

[23] = target: Neu5Ac(a2-6)GalNAc(b1-4)GlcNAc
How it was run: as §1

Neu5Ac(a2-8)Neu5Ac = target: Neu5Ac(a2-8)Neu5Ac
How it was run: as §1

[24] = target: Neu5Ac(a2-8)Neu5Ac(a2-3)Gal(b1-4)Glc
How it was run: as §1

[25] = target: Neu5Ac(a2-8)Neu5Ac(a2-3)[GalNAc(b1-4)]Gal(b1-4)Glc
How it was run: as §1

[26] = target: Neu5Ac(a2-8)Neu5Ac(a2-8)Neu5Ac
How it was run: as §1

[27] = target: Neu5Ac(a2-8)Neu5Ac(a2-8)Neu5Ac(a2-3)Gal(b1-4)Glc
How it was run: as §1

[28] = target: Neu5Ac(a2-8)Neu5Ac(a2-8)Neu5Ac(a2-3)[GalNAc(b1-4)]Gal(b1-4)Glc
How it was run: as §1

[29] = target: Neu5Ac(a2-8)Neu5Ac(a2-8)Neu5Ac(a2-8)Neu5Ac(a2-3)[GalNAc(b1-4)]Gal(b1-4)Glc
How it was run: as §1

[30] = target: Neu5Ac(b2-6)Gal(b1-4)GlcNAc
How it was run: as §1

Neu5Ac(b2-6)GalNAc = target: Neu5Ac(b2-6)GalNAc
How it was run: as §1

[31] = target: Neu5Ac9Ac(a2-6)Gal(b1-4)GlcNAc
How it was run: as §1

[32] = target: Neu5Gc(a2-3)Gal(b1-3)GlcNAc
How it was run: as §1

[33] = target: Neu5Gc(a2-3)Gal(b1-3)[Fuc(a1-4)]GlcNAc
How it was run: as §1

Neu5Gc(a2-3)Gal(b1-4)Glc = target: Neu5Gc(a2-3)Gal(b1-4)Glc
How it was run: as §1

[34] = target: Neu5Gc(a2-3)Gal(b1-4)GlcNAc
How it was run: as §1

[35] = target: Neu5Gc(a2-3)Gal(b1-4)[Fuc(a1-3)]GlcNAc
How it was run: as §1

[36] = target: Neu5Gc(a2-6)Gal(b1-4)GlcNAc
How it was run: as §1

Neu5Gc(a2-6)GalNAc = target: Neu5Gc(a2-6)GalNAc
How it was run: as §1

[37] = target: Neu5Gc(b2-6)Gal(b1-4)GlcNAc
How it was run: as §1

B1: P-Selectin (Homo sapiens), P16109 (protein)
chain: MANCQIAILYQRFQRVVFGISQLLCFSALISELTNQKEVAAWTYHYSTKAYSWNISRKYCQNRYTDLVAIQNKNEIDYLNKVLPYYSSYYWIGIRKNNKTWTWVGTKKALTNEAENWADNEPNNKRNNEDCVEIYIKSPSAPGKWNDEHCLKKKHALCYTASCQDMSCSKQGECLETIGNYTCSCYPGFYGPECEYVRECGELELPQHVLMNCSHPLGNFSFNSQCSFHCTDGYQVNGPSKLECLASGIWTNKPPQCLAAQCPPLKIPERGNMTCLHSAKAFQHQSSCSFSCEEGFALVGPEVVQCTASGVWTAPAPVCKAVQCQHLEAPSEGTMDCVHPLTAFAYGSSCKFECQPGYRVRGLDMLRCIDSGHWSAPLPTCEAISCEPLESPVHGSMDCSPSLRAFQYDTNCSFRCAEGFMLRGADIVRCDNLGQWTAPAPVCQALQCQDLPVPNEARVNCSHPFGAFRYQSVCSFTCNEGLLLVGASVLQCLATGNWNSVPPECQAIPCTPLLSPQNGTMTCVQPLGSSSYKSTCQFICDEGYSLSGPERLDCTRSGRWTDSPPMCEAIKCPELFAPEQGSLDCSDTRGEFNVGSTCHFSCDNGFKLEGPNNVECTTSGRWSATPPTCKGIASLPTPGLQCPALTTPGQGTMYCRHHPGTFGFNTTCYFGCNAGFTLIGDSTLSCRPSGQWTAVTPACRAVKCSELHVNKPIAMNCSNLWGNFSYGSICSFHCLEGQLLNGSAQTACQENGHWSTTVPTCQAGPLTIQEASTSITAYKSEGESAEFSFPLNLGEESLQGELRWKAEKAPSSQSWITFSLKNQKVSVQKSTSNPKFQLSETLPLTLQIPQVSLQFAGSGNLTLTLDRGILYQEVNLVVMKVTQPDSNTLTCEVMGPTSPKMRLILKQENQEARVSRQEKVIQVQAPEAGVWQCLLSEGEEVKMDSKIQVLSKGLNSGGGSGGGTGGGDLAPQMLRELQETNAALQDVRELLRQQVKEITFLKNTVMECDACGLDRNLPPLAPLGPHPETLVKVKDAEDQLGARVGYIELDLNSGKILESFRPEERFPMMSTFKVLLCGAVLSRIDAGQEQLGRRIHYSQNDLVEYSPVTEKHLTDGMTVRELCSAAITMSDNTAANLLLTTIGGPKELTAFLHNMGDHVTRLDRWEPELNEAIPNDERDTTMPVAMATTLRKLLTGELLTLASRQQLIDWMEADKVAGPLLRSALPAGWFIADKSGAGERGSRGIIAALGPDGKPSRIVVIYTTGSQATMDERNRQIAEIGASLIKHWGPDYKDHDGDYKDHDIDYKDDDDKGPHHHHHH
glycan array binding signal (z-score) [1]: 0.764
glycan array binding signal (z-score) [2]: 0.083
glycan array binding signal (z-score) [3]: 0.064
glycan array binding signal (z-score) [4]: -0.238
glycan array binding signal (z-score) [5]: 0.071
glycan array binding signal (z-score) [6]: 9.93
glycan array binding signal (z-score) [7]: -0.06
glycan array binding signal (z-score) [8]: 0.141
glycan array binding signal (z-score) (Neu5Ac(a2-3)GalNAc): -0.249
glycan array binding signal (z-score) [9]: -0.176
glycan array binding signal (z-score) [10]: -0.07
glycan array binding signal (z-score) [11]: -0.19
glycan array binding signal (z-score) [12]: -0.109
glycan array binding signal (z-score) (Neu5Ac(a2-6)Gal): 1.08
glycan array binding signal (z-score) (Neu5Ac(a2-6)Gal(b1-4)Glc): -0.122
glycan array binding signal (z-score) [13]: -0.288
glycan array binding signal (z-score) [14]: -0.005
glycan array binding signal (z-score) [15]: -0.101
glycan array binding signal (z-score) [16]: -0.079
glycan array binding signal (z-score) [17]: -0.139
glycan array binding signal (z-score) [18]: -0.304
glycan array binding signal (z-score) [19]: -0.313
glycan array binding signal (z-score) [20]: 0.327
glycan array binding signal (z-score) [21]: -0.024
glycan array binding signal (z-score) [22]: 0.362
glycan array binding signal (z-score) (Neu5Ac(a2-6)GalNAc): -0.32
glycan array binding signal (z-score) [23]: -0.322
glycan array binding signal (z-score) (Neu5Ac(a2-8)Neu5Ac): 0.108
glycan array binding signal (z-score) [24]: -0.226
glycan array binding signal (z-score) [25]: -0.159
glycan array binding signal (z-score) [26]: -0.232
glycan array binding signal (z-score) [27]: -0.234
glycan array binding signal (z-score) [28]: -0.193
glycan array binding signal (z-score) [29]: -0.169
glycan array binding signal (z-score) [30]: -0.407
glycan array binding signal (z-score) (Neu5Ac(b2-6)GalNAc): -0.397
glycan array binding signal (z-score) [31]: -0.349
glycan array binding signal (z-score) [32]: -0.429
glycan array binding signal (z-score) [33]: 4.38
glycan array binding signal (z-score) (Neu5Gc(a2-3)Gal(b1-4)Glc): -0.063
glycan array binding signal (z-score) [34]: -0.117
glycan array binding signal (z-score) [35]: 0.77
glycan array binding signal (z-score) [36]: -0.28
glycan array binding signal (z-score) (Neu5Gc(a2-6)GalNAc): -0.391
glycan array binding signal (z-score) [37]: -0.204

Reference: the supplement of paper PMC8728848
